“And” between values parts separate entries of the source, which are not always exact repeats. Identical values can stand only once. Hit rate of the full screen: of about 370,000 compounds, about 150 (0.041%) were called active. The inconclusive results got no clear call from the source; some entries with a clear call stand among them for comparison. Calls follow the shape of the dose curve; as a rule, active = well fitted inhibition curve with a large enough effect; inconclusive = small, poorly fitted or top-dose-only effect; inactive = flat fitted curve, though single readings scatter. A potency beside an inconclusive call is a rough fit, not a confirmed value.
These molecules were tested against Beta-lactamase (Escherichia coli (strain K12)) (UniProt P00811) (assay: qHTS Inhibitors of AmpC Beta-Lactamase (assay with detergent)). Settings: AmpC hydrolysis of nitrocefin, absorbance 480 nm, 0.01% Triton; activity change, negative = inhibition: at 114 µM (top of the series).
Method in brief: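 20 mM phosphate pH 7.0 + 0.01% (detergent screen) or 0.0001% Triton X-100; 5.3 nM AmpC reagent; cpd preinc 15 min RT; nitrocefin (800 uM stock) to start; A480 q20 s × 4 min; Activity was normalised to no-enzyme and no-compound control wells.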
Also: nearly all actives have a fitted effect of over 25% in size.
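For activity change, negative = inhibition in this document: 0% = no-compound wells and -100% = no-enzyme wells.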
Potency is read from the fitted curve at half-maximal effect; tags tell the direction and shape of the fitted curve.

Chain of UniProt P00811 (P00811 whole entry, looked up): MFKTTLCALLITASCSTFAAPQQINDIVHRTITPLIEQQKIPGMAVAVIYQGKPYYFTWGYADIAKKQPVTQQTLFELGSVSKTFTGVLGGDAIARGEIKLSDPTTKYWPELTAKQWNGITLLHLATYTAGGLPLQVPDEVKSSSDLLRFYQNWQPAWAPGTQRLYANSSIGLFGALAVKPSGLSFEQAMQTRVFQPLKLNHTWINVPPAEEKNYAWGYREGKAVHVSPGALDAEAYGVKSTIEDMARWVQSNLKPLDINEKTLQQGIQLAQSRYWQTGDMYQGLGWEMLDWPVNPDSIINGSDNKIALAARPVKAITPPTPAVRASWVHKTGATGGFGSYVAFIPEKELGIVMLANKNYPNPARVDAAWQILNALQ

SMILES	Potency	activity change, negative = inhibition
CCCNc1nc2c(c(=O)[nH]c(=O)n2C)n1Cc1ccc(F)cc1	inconclusive: 7.08 µM [inhibitor, full curve]	
C=CCOC(=O)C1=C(C)NC(=O)NC1c1ccc(OCC)cc1 (stereo unspecified)	inconclusive: 0.282 µM [inhibitor, full curve]	
CN(CC(=O)Nc1cccc(F)c1)C(=O)c1cccc(-n2cccc2)c1	inconclusive: 2.82 µM [inhibitor, full curve]	
COc1ccc(CCNC(=O)CCCc2ccccc2)cc1	inconclusive: 3.16 µM [inhibitor, full curve, poor fit]	
Cc1cc(C)nc(N2CCCC(C(=O)Nc3ccc4nc(C)c(C)nc4c3)C2)n1 (stereo unspecified)		inactive: -4.32%
Cc1ccccc1NC(=O)C(=O)NCC1CCCN1S(=O)(=O)c1cccs1 (stereo unspecified)	inconclusive: 31.6 µM [inhibitor, full curve, poor fit]	
COC(=O)CCC(=O)CN	inconclusive: 25.1 µM [inhibitor, full curve]	
CC(=O)Nc1ccc(-c2sc(Nc3cccc4ccccc34)n[n+]2-c2ccccc2)cc1		inactive: -12.9%
O=C(/C=C/c1ccccc1)c1cc(Br)ccc(=O)c1O	inconclusive: 79.4 µM [inhibitor, partial curve]	
CCc1cc(=O)[nH]c(SCC(=O)N2CCCC2)n1	inconclusive: 28.2 µM [inhibitor, full curve, poor fit]	
CCc1ccc(C(=O)CN2C(=O)NC(C)(CCc3ccccc3)C2=O)cc1 (stereo unspecified)	inconclusive: 112 µM [inhibitor, partial curve, poor fit]	
C#CCOCCOCCOCCNc1nc(N2CCN(C(=O)[C@H](CCCCN)n3cc(CCCC)nn3)CC2)nc(N2CCN(C(=O)[C@H](CCCCN)n3cc(CCC(=O)O)nn3)CC2)n1	inconclusive: 3.16 µM [inhibitor, single point]	
Cc1ccc(C(=O)CSc2nnc(C)s2)cc1		inactive: 5%
CCN(C(=O)COC(=O)CCc1c[nH]c2ccccc12)c1c(N)n(Cc2ccccc2)c(=O)[nH]c1=O	inconclusive: 0.631 µM [inhibitor, full curve, poor fit]	
CC(C)OCCCNc1ncc2c(n1)CC(c1ccc(N(C)C)cc1)CC2=O (stereo unspecified)	inconclusive: 5.62 µM [inhibitor, full curve, poor fit]	
CN(C)c1ccc(/C=N/NC(=O)COc2ccccc2)cc1		inactive: -13.6%
CC(=O)N1CCc2cc(S(=O)(=O)NC(Cc3ccccc3)C(=O)NCc3ccccc3)ccc21 (stereo unspecified)		inactive: 3.01%
CCC(C)(C(=O)NC1CCCC1)N(Cc1cccs1)C(C)=O (stereo unspecified)	inconclusive: 79.4 µM [inhibitor, partial curve]	
Cn1c(Cl)c(C(=O)Nc2ccccc2)c2ccccc21		inactive: 1.26%
Cc1cc(N/N=C2/CCCc3ccccc32)nc2ccccc12	inconclusive: 2.51 µM [inhibitor, partial curve, poor fit]	
O=c1cc(-c2ccccc2)[nH]c2cc(F)ccc12	inconclusive: 0.631 µM [inhibitor, full curve, poor fit]	
CCN=C(NC#N)SCc1c(F)cccc1Cl	inconclusive: 100 µM [inhibitor, partial curve, poor fit]	

SMILES	Potency	activity change, negative = inhibition
CCc1ccc(S(=O)(=O)Nc2cccc(-c3ccc(N4CCCCC4)nn3)c2)s1		inactive: -4.43%
Cc1cc(C)c2nc(C)cc(Nc3cccc(C(=O)O)c3)c2c1		inactive: 6.52%
COC(=O)c1ccc(C2NC(=S)N(c3ccccc3)C(C)=C2C(=O)Nc2ccccc2OC)cc1 (stereo unspecified)		inactive: 3.29%
CC(=O)c1ccc(N(C(=O)Cn2nnc3ccccc32)C(C(=O)NCc2ccccc2)c2ccccn2)cc1 (stereo unspecified)	inconclusive: 15.8 µM [inhibitor, full curve]	
O=C(Nc1ccccc1OC(F)F)c1cccc(S(=O)(=O)N2CCCC2)c1	inconclusive: 35.5 µM [inhibitor, full curve, poor fit]	
Cc1cc(Cl)cc(C)c1OCCCCN1CCOCC1	inconclusive: 3.55 µM [inhibitor, full curve, poor fit]	
COCC(=O)NC1CCN(CC(=O)Nc2ccc(OC)cc2[N+](=O)[O-])CC1	inconclusive: 11.2 µM [inhibitor, full curve, poor fit]	
COc1ccccc1NCC(=O)N/N=C/c1c(O)ccc2ccccc12		inactive: -2.54%
Cc1cc(C)c2nc3s/c(=C/c4ccccc4)c(=O)n3c2c1		inactive: 2.31%
N#CC1=C(N)C(C#N)(C#N)[C@H](c2ccncc2)[C@H]2CN(C(=O)OCc3ccccc3)CC=C12	inconclusive: 39.8 µM [inhibitor, partial curve]	
O=c1oc(-c2cccnc2)nc2ccccc12	inconclusive: 100 µM [inhibitor, partial curve, poor fit]	
CS(=O)(=O)N1CCC(C(=O)Nc2ccc(Br)cc2F)CC1	inconclusive: 100 µM [inhibitor, single point]	
O=C(CCc1nc(-c2ccccc2)no1)NC1CCCCCC1	inconclusive: 100 µM [inhibitor, single point]	
CNC(=O)COC(=O)c1ccccc1NC(=O)c1ccco1		inactive: 0.541%
CCS(=O)(=O)NCc1cn2ccsc2n1	inconclusive: 89.1 µM [inhibitor, single point]	
CCCn1c(C2CC(=O)N(c3cc(OC)ccc3OC)C2)nc2ccccc21 (stereo unspecified)	inconclusive: 2.82 µM [inhibitor, full curve]	
COc1cccc(NC(=O)CCN2C(=O)c3ccccc3Sc3ncccc32)c1	inactive and inconclusive: 28.2 µM [inhibitor, partial curve]	
Cc1ccccc1-n1c(SCc2c(C)noc2C)nnc1-c1c[nH]c2ccccc12	inconclusive: 11.2 µM [inhibitor, full curve, poor fit]	
CCc1ccccc1NC(=O)CC(=O)Nc1ccccc1CC	inconclusive: 10 µM [inhibitor, full curve, poor fit]	
Cc1c(/C(O)=C2\C(=O)C(=O)N(CCN(C)C)C2c2ccccc2)cnn1-c1ccccc1 (stereo unspecified)		inactive: -12.7%
COc1ccc(N=C2SCC(=O)N2Cc2ccccc2)cc1	inconclusive: 44.7 µM [inhibitor, full curve, poor fit]	
O=C(OC1Cn2c(=O)ccc(=O)n2C1)c1ccc([N+](=O)[O-])cc1	inconclusive: 12.6 µM [inhibitor, full curve, poor fit]	

SMILES	Potency	activity change, negative = inhibition
Cc1cccc(C(=O)Oc2ccccc2/C=N/Nc2ccc([N+](=O)[O-])cc2)c1	inconclusive: 2.51 µM [inhibitor, full curve, poor fit]	
COC(=O)c1ccc(C(=O)OC)c(NC(=S)N2CCCC(C)C2)c1 (stereo unspecified)	inconclusive: 11.2 µM [inhibitor, full curve, poor fit]	
c1ccc(N2CCN(c3ncnc4scc(-c5cccs5)c34)CC2)cc1	inconclusive: 1.58 µM [inhibitor, full curve, poor fit]	
O=C(Nc1ccc(N2CCCC2)c(Cl)c1)c1ccc(Br)o1		inactive: -14.8%
CCCCn1c(=S)[nH]c2ncccc2c1=O	inconclusive: 12.6 µM [inhibitor, partial curve, poor fit]	
O=C(CCn1nc(-c2ccc(Cl)cc2)ccc1=O)N1CCN(c2ccc(F)cc2)CC1		inactive: 0.243%
O=C(CN1CCN(c2ccc(O)cc2)CC1)Nc1cc(S(=O)(=O)N2CCOCC2)ccc1Cl	inconclusive: 100 µM [inhibitor, partial curve, poor fit]	
Nc1[nH]c(N=NC(=O)c2ccccc2)c2ccccc12		inactive: -3.55%
CC[C@H](C)[C@@H]1NC(=O)c2cc([N+](=O)[O-])cc(F)c2NCCCC[C@@H](C(N)=O)NC(=O)[C@H](CCCCN)NC1=O	inconclusive: 70.8 µM [inhibitor, partial curve, poor fit]	
Cc1cccc(C)c1-n1ncc(C(=O)NCCCN2CCC(C)CC2)c1C1CCN(C(=O)OC(C)(C)C)CC1		inactive: 17.9%
CC(c1nc2scc(-c3ccccc3)c2c(=O)[nH]1)N1CCN(CC(=O)NC2CC2)CC1 (stereo unspecified)	inconclusive: 5.01 µM [inhibitor, full curve, poor fit]	
Nc1cc(N)nc(SCC(=O)Nc2ccc(Br)cc2Cl)n1	inconclusive: 28.2 µM [inhibitor, full curve, poor fit]	
CC(=O)N1CCCC1c1nc2ccccc2n1Cc1ccccc1Cl (stereo unspecified)		inactive: -1.44%
Cc1ccccc1CSCC(=O)Nc1ccccc1-c1ccccc1		inactive: -8.28%
Cc1ccc(S(=O)(=O)Nc2nc3ccc(S(C)(=O)=O)cc3s2)cc1	inconclusive: 1.41 µM [inhibitor, full curve, poor fit]	
CC(C)(C)c1ccc(C(=O)CSc2ncn[nH]2)cc1	inconclusive: 39.8 µM [inhibitor, partial curve]	
Cc1nn2c(Nc3ccc(F)cc3)c3c(nc2c1-c1ccccc1)CCC3		inactive: 1.61%
O=C(O)c1cccc(NS(=O)(=O)c2cccc3cccnc23)c1	inconclusive: 28.2 µM [inhibitor, partial curve]	
CCOc1ccc(-c2nnc3ccc(SCC(=O)Nc4nc5ccc(C)cc5s4)nn23)cc1	inconclusive: 56.2 µM [inhibitor, partial curve]	
O=C(NCC(c1ccco1)N1CCc2ccccc2C1)c1ccccc1Br (stereo unspecified)	inconclusive: 39.8 µM [inhibitor, partial curve, poor fit]	
CC1(c2ccc(NC(=O)c3ccccc3F)cc2)CC1(Cl)Cl (stereo unspecified)	inconclusive: 28.2 µM [inhibitor, full curve, poor fit]	
CCc1nc(SCC(=O)c2cc(C)ccc2C)n[nH]1	inconclusive: 44.7 µM [inhibitor, partial curve]	
